Test results: publication PMC3897701
These are yes or no findings as the source states them, for the method shown. Some entries that bind do so weakly or less than the wild type. For part of these data: Where a sequence is shown, tags or fusion partners need not be part of it. Values belong to the binder of their own block, whether it stands above or below them.

Chains of the proteins cited; added tags and fusions are not shown. Residues count along the entry.
UniProt P41273, residues 50-254: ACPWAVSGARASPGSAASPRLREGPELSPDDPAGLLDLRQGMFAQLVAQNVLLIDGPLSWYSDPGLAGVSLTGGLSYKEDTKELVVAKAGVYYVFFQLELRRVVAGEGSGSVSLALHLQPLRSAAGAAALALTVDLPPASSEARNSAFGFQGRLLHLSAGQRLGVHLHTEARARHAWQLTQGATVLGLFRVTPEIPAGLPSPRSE
UniProt P41274, residues 104-309: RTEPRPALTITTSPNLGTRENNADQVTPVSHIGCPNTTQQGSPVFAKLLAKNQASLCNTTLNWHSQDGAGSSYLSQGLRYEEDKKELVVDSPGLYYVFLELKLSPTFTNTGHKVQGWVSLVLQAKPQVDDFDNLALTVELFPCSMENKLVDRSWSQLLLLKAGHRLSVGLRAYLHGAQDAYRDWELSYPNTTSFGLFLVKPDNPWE

Key:
[1] = biological target: hCD137L-mFc (human CD137L extracellular domain and mouse IgG-Fc fusion protein) (human) (UniProt P41273); experiment: ELISA; purified hCD137L-mFc coated at 1 µg/ml; expression supernatants of human or mouse CD137-hFc fragments added; goat anti-human IgG-HRP; positive if P/N>2.1; only the target purified
[2] = biological target: mCD137L-mFc (mouse CD137L extracellular domain with mouse IgG-Fc fusion protein) (mouse) (UniProt P41274); experiment: ELISA; purified mCD137L-mFc coated at 1 µg/ml, blocked with 5% milk; expression supernatants of CD137-hFc fragments added 2 h at 37°C; goat anti-human IgG-HRP; positive if P/N>2.1; only the target purified
[3] = biological target: mCD137L-mFc (mouse CD137L extracellular domain with mouse IgG-Fc fusion protein) (mouse) (UniProt P41274); experiment: ELISA; purified mCD137L-mFc coated at 1 µg/ml; purified mE, mE2, mE3, mE4 added at 0.1 to 10 µg/ml; goat anti-human IgG-HRP; both purified
[4] = biological target: mCD137L-mFc (mouse CD137L extracellular domain with mouse IgG-Fc fusion protein) (mouse) (UniProt P41274); experiment: ELISA; blocking: mCD137-hFc (1 µg/ml) mixed with rat anti-mouse CD137 mAbs (5 or 25 µg/ml), added to mCD137L-mFc coated plates (1 µg/ml); mouse anti-human-Fc-HRP; both purified

- binding [1]: binds
- binding [2]: binds
- binding [3]: binds
B1: mE4 (mouse CD137 CRDI+II+III, human IgG-Fc fusion protein) (Fc fusion, UniProt P20334 24-117)
chain: VQNSCDNCQPGTFCRKYNPVCKSCPPSTFSSIGGQPNCNICRVCAGYFRFKKFCSSTHNAECECIEGFHCLGPQCTRCEKDCRPGQELTKQGCK

- binding [1]: binds
- binding [2]: binds
- binding [4]: binds
- binding [3]: binds
B2: mouse CD137 extracellular domain with hFc tail (mE-hFc) (Fc fusion, UniProt P20334 24-185)
chain: VQNSCDNCQPGTFCRKYNPVCKSCPPSTFSSIGGQPNCNICRVCAGYFRFKKFCSSTHNAECECIEGFHCLGPQCTRCEKDCRPGQELTKQGCKTCSLGTFNDQNGTGVCRPWTNCSLDGRSVLKTGTTEKDVVCGPPVVSFSPSTTISVTPEGGPGGHSLQ

- binding [1]: binds
- binding [2]: binds
- binding [3]: binds
B3: mE3 (mouse CD137 CRDI+II, human IgG-Fc fusion protein) (Fc fusion, UniProt P20334 24-85)
chain: VQNSCDNCQPGTFCRKYNPVCKSCPPSTFSSIGGQPNCNICRVCAGYFRFKKFCSSTHNAEC

- binding [2]: no binding
- binding [3]: no binding (tested: 10 µg/ml)
B4: mE2 (mouse CD137 CRDI, human IgG-Fc fusion protein) (Fc fusion, UniProt P20334 24-45)
chain: VQNSCDNCQPGTFCRKYNPVCK
